Reference: the RNAGym collection of RNA variant scans (doi:10.7554/elife.90254)
The source gives no read counts; variants with many changes may rest on few reads.

B1: LINE1-full (parent)
chain: UACGUAGGUGGUUUUCCCCUGAUAGUGCUAAGGGGGCCUGGAAGUUUGGACUGGGCAGAGCUCAACACAGCGUGGCAAAGUGGCUGUGGCUAGACUGCCUCUCUGGAUUCCUCGUCACUCAGCAGGGCAUCUCUGAGAGAAAUGCC

Variants of: B1
Experiment: self-cleavage, relative activity (ratio to wild type); higher = more cleavage; in vitro, sequencing; the parent is a self-cleaving ribozyme

Row | Variant | self-cleavage
1 | G25A U45C U134A | 1.07
2 | G32A U81A U132C | 2.1
3 | U12G U20A A42G A69G | 0.93
4 | A50G G83A U96A G114A | 0.05
5 | A64U A124G U134A | 0.1
6 | A2G U26C A59G G72A | 0.48
7 | U91A G125A U134C | 0.51
8 | C17U U109C U112C A136G | 1.35
9 | U23C A57U U96C | 0
10 | U13C U73C A79G | 1.34
11 | U23A U46G A138U | 1.6
12 | A69U U104C U115A | 0.23
13 | G21A A77G G80U U85C A138U | 0.09
14 | U87A U96C A140U | 0.09
15 | U9A A65G G75U U81A G89U | 0.03
16 | U91C U112A C128U | 0.82
17 | A6U U12C A138G | 1.02
18 | U26A U39A U132C A142G | 1.24
19 | U15C U20C A69G | 0.09
20 | U13C G34U U85C U87C U109A G135A | 0.3
21 | U47C A57G U109A A141G | 1.04
22 | U39C A67U A124G A129G | 0
23 | U47C A129G U143A | 2.45
24 | U20C G54A C71U A129U | 0.21

Row | Variant | self-cleavage
25 | G54A A77U U102G A141G | 0.07
26 | U15C U39C U45A C99U U100C U109C A142G | 1.8
27 | U9C U85A C128U A140U | 0.12
28 | U5A G35C U102C U115C | 2.09
29 | U12G C68U A69G | 0.09
30 | U13C A43U C133A | 0.77
31 | U45A U73C C98U | 0.25
32 | U47C U96A U143C | 0.14
33 | A31U G35U G44A A59C A69U A92G U108C | 0
34 | A22G A67G U112C A141G C145U | 0
35 | U15A U46C U62C U130C | 0.26
36 | U12A C18U U73A | 1.07
37 | U15C G88A A138U A141G | 0.06
38 | C123U A140U A141G | 1.7
39 | U52A A107U U119A | 0.78
40 | A43G U46A U96G U112C | 0
41 | U20C U134C U143C | 1.33
42 | A69G C99U U115A | 0.2
43 | U20A U85C G89A U112C U143C | 0.1
44 | G25A A69U A94G U115G C123U | 0
45 | A67C U81C A138G | 0.16
46 | G10U U46C U100C | 1.8
47 | A129U U130C A141G | 1.79
48 | A22G G89A A92G | 0.21

Row | Variant | self-cleavage
49 | U15A U46C U115C | 0.38
50 | U9G A92G G114C | 0.18
51 | G60A A64G U81C | 0
52 | U62C U109C A138U | 0.05
53 | A78G U100C A136G | 1.81
54 | A2G U115C A142G | 1.15
55 | A57G U62A A78G A129G | 0.18
56 | C28U A50G A79G U85C | 0
57 | A69G A124G C128U | 0.09
58 | U15C C37U U52A G72A U87C C95U U112C A140U | 0.05
59 | U5A A6G A65G | 0.23
60 | G40U U73C A79U A138G | 2.32
61 | A65G U109A U132C | 0.06
62 | G97A U115A A124G | 0.04
63 | A31G U45A U96C | 0.14
64 | U5C U12A C38U | 1.15
65 | U14C U132C A142G | 1.11
66 | U1C U29C A79G U102A A107G U112A U134C | 2.12
67 | A129U A138G A140G | 1.25
68 | G83A U108C A121U C131U U134C A141G | 2.4
69 | U14C U39C A124U | 0
70 | U13C A43G U46A | 0.77
71 | U13A A30G A42G A121G | 0
72 | C19U A129U A138U A140G | 1.43

Row | Variant | self-cleavage
73 | U47A A65G G80U U100C A142G | 0.03
74 | U15C U29C A30G A77U U119A | 1.2
75 | U62C U87C A138G | 0.29
76 | G33A A64U U85C A140G | 0.05
77 | U15C U29C U73C | 0
78 | A67C U73C U104A | 0
79 | G58A U73C U96A A142G | 0
80 | A6U G49A U102A U132C A140G | 0.94
81 | A22G U81C U143A | 0.95
82 | U12C U81C U85A | 0
83 | A69C C76U A107G G135A | 0.1
84 | C28U U47A A94U U115C | 0.19
85 | A59G A77G A107U U115C C120U | 0.17
86 | U5A U62C C90A | 0.04
87 | U39C A50G U100C C123U | 0.96
88 | G8C A42G A65G A69G U85C C98U | 0
89 | A30G U109C G114A G135U A138G | 1.06
90 | U14A A22G A129U | 1.15
91 | U23C U46C U132C A136G | 0.8
92 | A94G U109A A129G U134C | 0.34
93 | U46C G114A A117U | 1.3
94 | U85C U119G A136U | 0.08
95 | U23C A43G U45C G80A | 2.26
96 | A65G U96C C99U U115C | 0.32

Row | Variant | self-cleavage
97 | U62C A136G U143A | 0.03
98 | G34A U52G U73A A142G | 1.62
99 | U23C A30U A69U | 0
100 | A43U A69U U73C U119C | 1.19
101 | C3G U81C C113U | 1.03
102 | U1C U23C U46C U109A C118U | 1.03
103 | U15C U23C U26A U100C | 1.02
104 | U5C U81C A141G | 0.86
105 | A31G C71U U87G U96A U112C G126A U132A | 0.02
106 | A69U U73G U91C | 0.23
107 | A22G U45C A78G | 1.19
108 | U14C U20C C90A | 0.13
109 | U45C U132C U143C | 1.84
110 | G7U A59G A138G | 0.23
111 | U15C C19U U115C A124G | 0.77
112 | U13A U20C U47A U62C U100C U102C | 0
113 | U13C A30G A43G U96C | 0
114 | A22G G34A U81C | 0.96
115 | G25U U115A A138G | 1.31
116 | G7C U91C U130C A138U U143A | 0.74
117 | A2G U29C C98U | 0.73
118 | U12C C61G U119C | 0
119 | U9A U20C A42G U134C | 1.67
120 | A65U U85A U132C A140G | 0.03

Row | Variant | self-cleavage
121 | A65U U87A U91C | 0.04
122 | U13C A42G A59U A140G A141G | 1.91
123 | A57G U112C U130C A140G | 1.21
124 | U29C U87C A124G U134G | 0
125 | C3U U45A U108C U132C | 0.8
126 | U47A G54A U112C G127U | 0.38
127 | U9C A22U G74A A138G | 1.11
128 | U52C A77U U87A A129C | 0.07
129 | C28U U46C A67U A107G U108C | 0.18
130 | U1C A65G U96C A141G | 0
131 | U15C A24U A94G G105A | 0.59
132 | U14C A59G C131G | 0.36
133 | U1A U12C C90U | 0.21
134 | A31G G32C U81A U104C | 1.78
135 | U62A A79G C113U A129G | 0.05
136 | G49U A64U U73A | 0.27
137 | U15C A77G A140G | 2.45
138 | C61A A64G A78U C120U | 0.05
139 | U1C U85C U102C C111U U132C A140C | 0
140 | G53A U104A U112C U134A A141G | 1.86
141 | U5C U14C U96C G126U U134C A142G | 0.38
142 | U112C U119C C123G A142G C145G | 1.96
143 | G93U U108C U119C | 0
144 | U29A U73A U104A A121U | 2.45

Row | Variant | self-cleavage
145 | U39A A78U A129U A141G | 2.15
146 | U9C U29C U39C A42G | 1.84
147 | U73C U87C C101U U102C | 0
148 | U15C A30U G34A A77C | 1.3
149 | A31G A64U A77G U130C | 0.24
150 | A50G C61U U130C | 0.13
151 | A6U U15A A64G | 0.52
152 | A31G A94G U115A | 0
153 | A24G U39A A142G | 0.46
154 | U9A U81C U85A | 0.03
155 | C28A A69U A142G | 0.08
156 | A92G U132C A136G | 0.32
157 | U9C A79G C95U | 0.34
158 | U13G A30G U100C | 1.41
159 | U12A A117G A141G U143C | 1.2
160 | U13C G88C A140G | 0.08
161 | A43U A64U A79C U102C A140G | 0
162 | A78G U81A U119C A142G | 0.54
163 | A31G U102C A121C | 1.38
164 | U45C U47C A57U | 0.14
165 | C37U U47C U112C U130C | 1.73
166 | G75A U100C G114A | 1.43
167 | A69G A78G U85C | 2.63
